Measurements: PubChem BioAssay AID1347417 (National Center for Advancing Translational Sciences (NCATS), 2020)
The whole screen tested about 120,000 compounds, of which about 5,300 (4.4%) were called active. Inconclusive results, whose numbers are uncertain, are shown with a selection of clear calls. Calls come from the whole dose curve; as a rule, active = well fitted inhibition curve with a large enough effect; inconclusive = small, poorly fitted or top-dose-only effect; inactive = no such curve, though single readings can be large or run the other way. A potency beside an inconclusive call is a rough fit, not a confirmed value.

Assay: qHTS Primary assay for Inhibitors of Plasmodium falciparum Dd2 growth in vitro; note: nearly all actives have a fitted effect of over 65% in size;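 for activity, negative = inhibition: plate controls were DMSO vehicle for no effect and reference drug for full effect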
Conditions: P. falciparum Dd2 growth, SYBR Green, 72 h; activity, negative = inhibition: at 28.9 µM (top of the series) unless noted; series mostly up to 28.9 µM
In short: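 Readout: SYBR Green fluorescence, 485 nm excitation, 535 nm emission, after ~16 h lysis at 37C. Before that, Dd2-infected red cells (2.5% hematocrit) grew 72 h with compound, 29 uM top final concentration.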
Potency is the fitted concentration of half-maximal effect; tags give direction and shape of the fitted curve.

Row | Structure (SMILES) | Potency | activity, negative = inhibition | outcome
1 | NCCn1cc(C(=O)N2CCCC(c3[nH]ncc3Cc3ccccc3)C2)nn1 (stereo unspecified) | inconclusive: 2 µM [inhibitor, full curve, poor fit] |  | 
2 | O=C(c1ccc(Cl)cc1)N1CCC2(CC1)CN[S+](=O)([O-])c1cccnc1O2 |  | inactive: 8.05% | 
3 | COc1ccc(-c2nc(C)nc3c2CN(C(=O)c2ccc4c(c2)OCO4)CC3)cc1 |  | inactive: -12.1% | 
4 | Cc1ccc(-c2csc(=Nc3ccc(F)cc3)n2Cc2ccc3c(c2)OCO3)cc1C | inconclusive: 10 µM [inhibitor, single point] |  | 
5 | CCc1ccc(NC(=O)Cn2c(=O)c(-c3noc(CC)n3)c3n(c2=O)CCCC3)cc1 | inconclusive: 1.41 µM [inhibitor, partial curve, poor fit] |  | 
6 | COc1cccc(CN2Cc3cc(NC(=O)Cc4cccs4)ccc3OC(C)C2=O)c1OC (stereo unspecified) | inconclusive: 3.16 µM [inhibitor, partial curve, poor fit] |  | 
7 | CCC(C(=O)Nc1cc(-c2nc3cccnc3s2)ccc1C)c1ccccc1 (stereo unspecified) | active: 10 µM |  | 
8 | O=C1CCN(C(=O)[C@H](Cc2ccccc2)NS(=O)(=O)c2ccccc2)CCCOCCN1 | inconclusive: 11.2 µM [inhibitor, single point] |  | 
9 | Cc1cn2nnc(C(=O)NCCC3=CCCCC3)c2c(=O)[nH]1 | active: 10 µM |  | 
10 | CCC(CC)C(=O)Nc1cccc(-c2nc3ccccc3s2)c1 | inconclusive: 20 µM [inhibitor, single point] |  | 
11 | CCOc1ccc(-c2nnc(SCC(=O)NCc3ccc(C)cc3)nc2-c2ccc(OCC)cc2)cc1 | inconclusive: 12.6 µM [inhibitor, partial curve, poor fit] |  | 
12 | CCc1ccc(Nc2nc(N)nc(CSc3nc4ccccc4s3)n2)cc1 |  | inactive: 15.1% [at 5.79 µM] | 
13 | CCN(Cc1ccccc1)Cc1c(O)ccc2c(=O)c(-c3ccccc3Cl)c(C(F)(F)F)oc12 | active: 8.91 µM |  | 
14 | CCn1ncc(N2CCC(NC(=O)c3ccc(OC(C)C)cc3)CC2)cc1=O | inconclusive: 7.94 µM [inhibitor, partial curve] |  | 
15 | CCOCc1cc(CN2CCN(c3cccc(Cl)c3)CC2)c(O)c2ncccc12 | active: 2.82 µM |  | 
16 | CCCN(CCC)C(=O)CSc1nc2sc3c(c2c(=O)n1-c1ccccc1)CCN(C(C)=O)C3 | inconclusive: 17.8 µM [inhibitor, single point] |  | 
17 | O=C(c1ccc2c(c1)OCO2)N1CCCC(n2cc(-c3nc(-c4ccccc4)no3)nn2)C1 (stereo unspecified) |  |  | inactive
18 | CC(=O)c1ccc(N2CCN(S(=O)(=O)c3ccc4[nH]c5c(c4c3)CCCC5)CC2)cc1 | inconclusive: 17.8 µM [inhibitor, single point] |  | 
19 | CNC(=O)[C@@H]1C[C@H](Oc2cccnc2)CN1C(=O)c1ccco1 |  | inactive: -0.322% | 
20 | CCS(=O)(=O)c1nc(S(=O)(=O)c2ccc(Cl)cc2)c(NCc2ccccc2Cl)s1 | inconclusive: 8.91 µM [inhibitor, single point] |  | 
21 | C=CCO[C@@H]1CCN2C(=O)c3cc(-c4ccc(F)cc4F)ccc3NC(=O)[C@H]12 | inconclusive: 11.2 µM [inhibitor, partial curve, poor fit] |  | 
22 | CC1(c2ccccc2)N(Cc2ccccc2C#N)C(=O)OC12CCN(C(=O)CCc1cccnc1)CC2 (stereo unspecified) | inconclusive: 1.41 µM [inhibitor, single point] |  | 

Row | Structure (SMILES) | Potency | activity, negative = inhibition | outcome
23 | CCOC(=O)c1sc(NC(=O)c2cc(-c3ccc(F)cc3)on2)c(C(=O)OCC)c1C | inconclusive: 17.8 µM [inhibitor, single point] |  | 
24 | Cc1ccc(NC(=O)CCn2ccn3nc4c(c3c2=O)CCCC4)cc1C |  |  | inactive
25 | Cc1ccc(NC(=O)C2CCCN(S(=O)(=O)c3cccc4cccnc34)C2)c(C)c1 (stereo unspecified) | inconclusive: 3.55 µM [inhibitor, full curve, poor fit] |  | 
26 | Cc1ccccc1NC(=O)N1CCCC(Cn2cnc3cccnc32)C1 (stereo unspecified) |  |  | inactive
27 | CC1=C(C(=O)Nc2ccc(C)cc2C)C(c2ccccc2)n2ncc(C(=O)Nc3ccccc3)c2N1 (stereo unspecified) | inconclusive: 10 µM [inhibitor, single point] |  | 
28 | Cc1noc(C2CC3(CCN(C(=O)CCC4CCCC4)CC3)CN2C)n1 (stereo unspecified) | active: 4.47 µM |  | 
29 | CC(=O)N1Cc2ccccc2CC2(CCCN(CC3CCCCC3)C2)C1 (stereo unspecified) | inconclusive: 10 µM [inhibitor, single point] |  | 
30 | COc1cc2c(cc1NC(C)=O)C(c1ccc(Oc3ccccc3)nc1)CC(=O)N2 (stereo unspecified) | inconclusive: 10 µM [inhibitor, partial curve] |  | 
31 | Cc1cccc(C)c1Nc1c(-c2ccsc2)nc2ccc(Cl)cn12 | inconclusive: 20 µM [inhibitor, single point] |  | 
32 | COc1cc(OC)cc(-c2nc(C3CC(=O)N(Cc4ccccc4OC)C3)no2)c1 (stereo unspecified) | inconclusive: 15.8 µM [inhibitor, single point] |  | 
33 | COc1ccc(Cl)cc1-c1ccc2c(c1)C(=O)N1CCN(C(=O)C3CC3)C[C@@H]1C(=O)N2 | active: 12.6 µM |  | 
34 | CC1(COc2cccnc2)COc2ccc(C(=O)NCc3cccs3)cc2N1 (stereo unspecified) |  | inactive: -14.8% [at 44.1 µM] | 
35 | COC(=O)c1c(-c2ccc(Cl)cc2)noc1N1CCN(c2cccc(C(F)(F)F)c2)CC1 | active: 7.08 µM |  | 
36 | CC(=O)c1cccc(NC(c2ccc(F)cc2)c2nnc(-c3ccccc3)o2)c1 (stereo unspecified) | inconclusive: 17.8 µM [inhibitor, single point] |  | 
37 | O=C(c1ccn2cncc2c1)N1CCOCC1 |  | inactive: 4.98% [at 44.1 µM] | 
38 | CC(C)Oc1ccc(CN2CCC3(CCNCC3)C2)cc1 | inconclusive: 14.1 µM [inhibitor, partial curve, poor fit] |  | 
39 | Cc1ccccc1CSc1nc2c(sc3ccccc32)c(=O)n1CCCOC(C)C | inconclusive: 10 µM [inhibitor, partial curve, poor fit] |  | 
40 | O=c1c(N2CCN(c3cccc(C(F)(F)F)c3)CC2)csc2ccc(Cl)cc12 | inconclusive: 3.55 µM [inhibitor, partial curve, poor fit] |  | 
41 | COc1ccc(Cl)cc1-c1cc2c(cn1)CN(Cc1cccnc1)CCN2 | inconclusive: 31.6 µM [inhibitor, single point] |  | 
42 | COC(=O)c1cc2oc3ccccc3c2n1Cc1cc(C)ccc1C |  | inactive: -2.09% | 
43 | CC(=O)Nc1ccc(CN2CCCC3(CC(c4cccnc4)=NO3)C2)cc1 (stereo unspecified) |  | inconclusive: -84.1% [inhibitor] | 
44 | CN(Cc1ccccc1)Cc1nc2c(n1Cc1ccccc1)C(=O)N(Cc1ccccc1C#N)CCN2 | active: 10 µM |  | 

Row | Structure (SMILES) | Potency | activity, negative = inhibition | outcome
45 | Cn1nc(-c2cccs2)cc1-c1nc(C2CCOC2)no1 (stereo unspecified) |  | inactive: 2.83% | 
46 | Cc1ccc(-c2cc(N3CCCN(C(=O)Cc4ccc(F)cc4)CC3)n[nH]2)cc1C |  |  | inactive
47 | COc1ccc(OC)c(CCNC(=O)c2cnn(-c3ccccc3)c2C2CCN(C(=O)OC(C)(C)C)CC2)c1 | inconclusive: 1.78 µM [inhibitor, single point] |  | 
48 | Cc1ccc2c(c1)N(CCCC(=O)N1CCc3c(nc4cc(-c5ccccc5)[nH]n4c3=O)C1)C(=O)CO2 |  | inactive: 3.08% [at 5.79 µM] | 
49 | CCc1noc(CN(CC)C(=O)c2ccccc2NCc2sccc2C)n1 | inconclusive: 11.2 µM [inhibitor, single point] |  | 
50 | CCOc1ccccc1CC1C(=O)Nc2ccc(Br)cc21 (stereo unspecified) |  | inactive: 13.3% | 
51 | Cc1ccc(NC(=O)N2CCN(c3nnnn3-c3ccc(Cl)c(C)c3)CC2)cc1F | inconclusive: 7.94 µM [inhibitor, partial curve] |  | 
52 | Cc1noc(-c2cn(C3CCN(C(=O)C(C)Oc4ccc(Cl)cc4)CC3)nn2)n1 (stereo unspecified) | inconclusive: 0.251 µM [inhibitor, full curve, poor fit] |  | 
53 | CCc1ccc(Nc2ncnc3c2cnn3-c2cc(Cl)ccc2C)cc1 | active: 10 µM |  | 
54 | Cc1ccc(-n2c(C3CCN(C(=O)c4ccc(C(F)(F)F)cc4)CC3)n[nH]c2=O)cc1 | inconclusive: 17.8 µM [inhibitor, single point] |  | 
55 | Cc1noc([C@@H]2CN(C(=O)CCCc3nc4ccccc4s3)C[C@H]2C(N)=O)n1 | inconclusive: 7.08 µM [inhibitor, partial curve, poor fit] |  | 
56 | C[C@@H](NC(=O)C[C@@H]1c2nc(NC(=O)c3ccco3)sc2C[C@@H]2[C@](C)(CO)[C@H](O)CC[C@]21C)c1ccccc1 | inconclusive: 5.01 µM [inhibitor, partial curve, poor fit] |  | 
57 | Cc1ccc(C)c(N2CCN(Cc3csc(C)c3C)CC2)c1 |  |  | inactive
58 | COc1ccccc1-c1cc(C(=O)N2CCCCC2C)no1 (stereo unspecified) | inconclusive: 5.01 µM [inhibitor, partial curve, poor fit] |  | 
59 | CC(C)c1noc(-c2cn(C3CCN(C(=O)C4(c5ccccc5)CC4)C3)nn2)n1 (stereo unspecified) |  |  | inactive
60 | CCCCC(=O)Nc1ccc2nc(SCC(=O)N3CCCC3)sc2c1 |  |  | inactive
61 | Cc1ccc(C(=O)N[C@H]2C[C@@H](c3nc(-c4ccc5c(c4)OCO5)no3)N(C)C2)cc1 | inconclusive: 31.6 µM [inhibitor, single point] |  | 
62 | CC(=O)N1CC2(CCCCN2CC2CC2)Cc2ccccc21 (stereo unspecified) | inconclusive: 11.2 µM [inhibitor, partial curve, poor fit] |  | 
63 | Cc1ccc(NC(=O)Cn2nc3n(c2=O)CCCCC3)c(C)c1 | inconclusive: 20 µM [inhibitor, single point] |  | 
64 | O=C(NCc1cccnc1)c1nc(-c2ccc(Cl)cc2)c2ccccn12 | inconclusive: 11.2 µM [inhibitor, single point] |  | 
65 | COc1ccccc1Nc1ncc2c(n1)CN(C(=O)c1ccc(Cl)cc1)CCN2 | inconclusive: 7.94 µM [inhibitor, partial curve] |  | 
66 | Cc1cc(N2CCCCC2)nc2ccc(NC(=O)/C=C/c3ccccc3Cl)cc12 | inconclusive: 3.98 µM [inhibitor, partial curve] |  | 
